Whole data set: some 33,000 sequences, median “E-score (-0.5 to 0.5)” near -0.016, cut for the highest 2% near 0.32. The list shows a part of the results.
Target: T1, Stp1 (UniProt B3LFK1)
T1 sequence: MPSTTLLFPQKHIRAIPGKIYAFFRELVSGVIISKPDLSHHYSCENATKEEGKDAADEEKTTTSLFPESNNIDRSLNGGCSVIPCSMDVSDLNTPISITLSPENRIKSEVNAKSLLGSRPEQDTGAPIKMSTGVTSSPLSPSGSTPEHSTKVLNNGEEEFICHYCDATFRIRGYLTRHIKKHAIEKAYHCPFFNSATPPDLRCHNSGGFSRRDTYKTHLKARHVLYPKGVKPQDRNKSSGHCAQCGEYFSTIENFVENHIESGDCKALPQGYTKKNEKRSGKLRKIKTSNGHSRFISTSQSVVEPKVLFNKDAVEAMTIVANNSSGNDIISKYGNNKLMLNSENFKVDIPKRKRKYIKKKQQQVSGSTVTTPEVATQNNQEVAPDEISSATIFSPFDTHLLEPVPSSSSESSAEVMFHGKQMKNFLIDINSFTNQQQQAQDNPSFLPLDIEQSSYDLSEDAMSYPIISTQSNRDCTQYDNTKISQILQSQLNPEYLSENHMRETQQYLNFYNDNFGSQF
Experiment: PBM E-score (8-mer binding enrichment) (E-score (-0.5 to 0.5)); higher = stronger / more preferred TF binding; most listed sequences are background and not binding sites
Conditions: protein concentration: 200 nM; construct: GST-full length
Summary of the method: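 Bound GST-tagged yeast transcription factors, applied at about 100-200 nM to double-stranded universal all-10-mer Agilent arrays, were detected with fluorescent anti-GST. Scans were normalised with masliner. A modified Wilcoxon-Mann-Whitney statistic, the E-score, was assigned to each ungapped eight-base word pooled with its reverse complement by the Universal PBM Analysis Suite.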

| Sequence | PBM E-score |
| --- | --- |
| ATTCACGG | 0.21 |
| GTTAAGAA | 0.0825 |
| AGCTAGTG | -0.194 |
| TGTTATAA | 0.138 |
| GCGGAGAA | -0.0384 |
| AATGGACA | 0.102 |
| CAACCCAC | 0.0457 |
| AACCCAAT | 0.0153 |
| CCCTGTAC | -0.211 |
| ATTTCTTG | 0.161 |
| GTAAGCCA | -0.244 |
| AAGCGGAA | 0.0259 |
| CATCATGC | 0.205 |
| ACAAGGTC | -0.159 |
| ATCCATCC | -0.0688 |
| GACGCAAC | -0.0448 |
| AAGTCCAT | -0.176 |
| CTCTCGGA | -0.103 |
| CCTCGAAC | -0.142 |
| GAGCCACC | -0.266 |
| ATGCAAAA | 0.199 |
| TCTGAAAA | 0.101 |
| CATATAAA | 0.223 |
| CGGATCTC | -0.0599 |

| Sequence | PBM E-score |
| --- | --- |
| CATCACCG | -0.0719 |
| GCACTTCA | 0.134 |
| GAGTTACA | 0.0484 |
| ATATTCTC | 0.03 |
| CATATGAC | 0.111 |
| CCCATCCG | -0.163 |
| CCCATATA | -0.0294 |
| GGGACACA | -0.202 |
| AGTGAAAC | -0.00865 |
| CATTATGC | 0.0672 |
| ATCGCATG | 0.00857 |
| ACCCTCAG | -0.274 |
| GCGAGCGA | 0.126 |
| AAGATACT | -0.0628 |
| AATGTGGC | 0.158 |
| ACGACAGC | -0.0232 |
| CGATTAAG | 0.166 |
| CACCCTAG | -0.172 |
| AATAGATT | 0.0699 |
| ATCTGACG | -0.148 |
| CGTATAAG | -0.0244 |
| ATAATGTG | 0.0627 |
| AGCCGTGA | 0.343 |
| ACGCCCTA | 0.127 |

| Sequence | PBM E-score |
| --- | --- |
| ACAGTTAA | 0.0767 |
| AGTTGCGG | 0.0205 |
| ATGGAACG | -0.0659 |
| AGTTAATC | 0.0657 |
| AGTCAACG | -0.173 |
| GAAAACAC | 0.105 |
| GCACCAAA | 0.257 |
| ATCCAGAC | 0.0241 |
| AGAGGTGA | -0.228 |
| CTTAGTAC | 0.17 |
| GTGTTCCA | -0.189 |
| CCAAGTTC | -0.268 |
| CGGCCCTA | 0.161 |
| GCACCAGC | -0.164 |
| GTAAACTA | 0.11 |
| GCCGCTCA | 0.381 |
| TCTTACAA | -0.135 |
| ATTAGGAC | -0.0811 |
| ACGGGAGG | -0.18 |
| CAACGAAA | 0.211 |
| GTTAATCA | 0.187 |
| CCCCGCGC | 0.242 |
| GCCCGGGA | -0.199 |
| ACCACCCT | -0.23 |

| Sequence | PBM E-score |
| --- | --- |
| ATCGGCAC | 0.297 |
| CTATGGGC | -0.102 |
| AACACTTC | -0.112 |
| GCTTGTCA | 0.0363 |
| CTCCCACA | -0.188 |
| CGTACCGC | 0.168 |
| AACCGACA | 0.123 |
| CAATTTGG | 0.00121 |
| ACACGGGA | 0.148 |
| GGCCTTCA | -0.0707 |
| AAATGGAG | 0.0643 |
| CGGAATCA | 0.0443 |
| CACGTATG | 0.109 |
| CAGGCAAC | -0.258 |
| CATAACTC | -0.187 |
| CGTGTCGA | 0.107 |
| GCAATAAA | 0.202 |
| AATATACG | 0.017 |
| AGCCTACC | -0.142 |
| AACCTTCA | -0.187 |
| AAGCATAT | -0.0129 |
| ACCGGACA | -0.288 |

Source: the supplement of paper PMC3334620
